Some of the results follow. At the low end of the ranking the order means little. The protein was read in a cell extract, so binding may be indirect.

The target in this assay is T1, HNF4alpha2 (COS-7 nuclear extract) (UniProt P41235).
T1 sequence: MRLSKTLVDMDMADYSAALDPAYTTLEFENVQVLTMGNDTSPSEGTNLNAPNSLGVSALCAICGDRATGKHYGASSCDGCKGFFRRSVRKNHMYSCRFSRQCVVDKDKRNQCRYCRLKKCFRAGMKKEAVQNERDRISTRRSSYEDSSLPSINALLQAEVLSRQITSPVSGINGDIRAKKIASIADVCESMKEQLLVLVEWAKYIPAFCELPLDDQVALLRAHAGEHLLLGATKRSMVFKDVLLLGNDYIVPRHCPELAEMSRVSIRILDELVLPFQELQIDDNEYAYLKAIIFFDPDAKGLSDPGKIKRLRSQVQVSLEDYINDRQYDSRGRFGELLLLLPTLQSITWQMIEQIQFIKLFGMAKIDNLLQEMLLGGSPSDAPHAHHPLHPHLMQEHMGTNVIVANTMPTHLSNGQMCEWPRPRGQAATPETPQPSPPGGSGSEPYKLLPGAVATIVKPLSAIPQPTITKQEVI
The experiment in a line: protein-binding microarray. The conditions noted are these: COS-7 nuclear extract on double-stranded Agilent 4x180k PBM; binding buffer, salt, pH and temperature not given; high values mean tight binding; double strand, one strand shown; sequences stand for … in …GCCTAGGGAGATTAGAGTATCGGTCGA
Turning to AATTCCCTGCAAGGACAAAGGTCATGTTTT, the binding signal (log2 normalized intensity) came out at 6.26. For CGACCACTGGCTGAACAGGGTCAGTGCAAT the value was 0.96; for TCCAAAGGTCAATGCCAGGACCCTGTGGGA, 2.76. Consider GCAGAAAAACATATTTGCATAATGGAGCAA, for which the binding signal (log2 normalized intensity) was -0.977. TACGTACAATCTAAAAATGTTGAACTCACA: the binding signal (log2 normalized intensity) came to 1.89. Take GAGGCTGAAATGGTTACAAAGGTCACACTC: the binding signal (log2 normalized intensity) came to 4.8. Take GGTGGCAGCAGCAGGCAGGGACTTTGGCCC: the binding signal (log2 normalized intensity) was 5.52. As to GTGCAGGGGGCGAGCATGGCCGCTCCGCGA, the binding signal (log2 normalized intensity) was -1.13. In the case of CCCGCGCGTGGCCCAGCATGCCCCGCGCCG, the binding signal (log2 normalized intensity) was -0.967.

CCTAAGCCCCATGCTGATAAGGGCCACAGA: the binding signal (log2 normalized intensity) was -0.987. For CGGCTTGCGTCCCCAGGTGAACTCAGTCCT, the binding signal (log2 normalized intensity) was 1.21. CCAAGATACCACTGATAAGGTTCCAGCAAA: the binding signal (log2 normalized intensity) is -1.03. Turning to TTGAAACCTAAGATGTCACAGGCAAGCAAG, the binding signal (log2 normalized intensity) is -1.11.

On to GACAAGAAAAGTAATGAAAGGAAATCATTC, for which the binding signal (log2 normalized intensity) is -0.98.

Turning to GACCCGTCAGCCCTGGTCCAGGCCATGCAA, the binding signal (log2 normalized intensity) is -1.21. On to TCTCTTACCAGCTGGGGTTTTACCAGGCAC, for which the binding signal (log2 normalized intensity) is -0.0635. Regarding GATAACCCACCTCCGGCCGGGAAGATGCCA, the binding signal (log2 normalized intensity) was -1.15. In the case of ATTAATTAAAGAACTGACAAGCAGTGACCA, the binding signal (log2 normalized intensity) came to 1.21.

As to AGGCCTTTATTTGCTTATAGCTCAAAGTCC, the binding signal (log2 normalized intensity) was 4.96. With CCCTAGTTTTTCTTCCGGTCACATACTCTG the figure was 1.76; with GTTAAAGACCTTTGGGTAGGAATAGAGCTC, -0.269.

For GGGAGAATGATAAGATATATGACTCTAGAT, the binding signal (log2 normalized intensity) was -1.13.

As for TTCACATTCCATCATCACGGTGGACATTGT, the binding signal (log2 normalized intensity) amounted to 3.48. With TGGGTATGTCTGTAGGTAAGCACAAAGTAC the figure was 1.92; with TGTGAGTCACAAACAGTACTGACATCTATC, -1.11; with AGCTCTTTTGAACCCAAGGCCAAACACGGA, 0.349. TTGGTCTGAACCTCATCTGTGTAGAAATTG: the binding signal (log2 normalized intensity) turned out to be 0.986. For GATGCAGAACAAGGTAGCCACAGAATGACT the value was -1.04; for CCTTTCATGTACTGTTCAGTTCCTATTTCA, 1.72; for ACATACCTTAGGCTGTGCATATTGGTTTAC, 1.34.

Consider CTACAGAACCTCCCTCCCCATCTCCCCAGA, for which the binding signal (log2 normalized intensity) came out at 5.3.

AAGCCCAGAACACTCTACCCCCTCCCACTT: the binding signal (log2 normalized intensity) turned out to be 4.24. Consider TCTGTCTTGGACTGCGAAAGATAAAAGGCC, for which the binding signal (log2 normalized intensity) was 0.462. Regarding GAGGATGACCTTCCCTGCAGAAAAGGCCCC, the binding signal (log2 normalized intensity) stood at 1.33. With TTTGTAACTTCTTGGCCTGCATAGCACTTT the figure was 1.47; with GGCACTCCCAGGATAATGGAGAAGATAAGC, -1.19; with ACATTCCAGAAAAGGCCTAAAAGGTTATCT, -0.657. For TTGGAGAATGCCTTTTGTGTAGGAGTACAC, the binding signal (log2 normalized intensity) came out at 1.7. For AGTCTTGAGTCCCAAAGTCCAAAGGCAGTC, the binding signal (log2 normalized intensity) stood at 2.83. On to GGTTCTGCAGGTTCATGGGAGAGCACTTGG, for which the binding signal (log2 normalized intensity) turned out to be 0.91. In the case of TGACCTTTGCCTCATTCTTATTGCCTCATG, the binding signal (log2 normalized intensity) turned out to be 3.96.

Take TTCCTAACAGTGAATGTTTCGTAATATTTA: the binding signal (log2 normalized intensity) was -0.309. With CAAATTAAACAGCATTTGTTTTAAGTTCAT, the binding signal (log2 normalized intensity) amounted to 0.426. Take TTTAGATTTTCTCACTCTAAAGGAAGGGAT: the binding signal (log2 normalized intensity) is -1.07. Take ACAGGGTGGCTTTGATCTGGGTGGGGGTGG: the binding signal (log2 normalized intensity) was determined as 1.3. Turning to GGAAAACTACCCCTGCCTAAACAAGGCAGA, the binding signal (log2 normalized intensity) is -0.903. For the sequence ATTCCTTTTTCACTGCTCACAGGTTGTACT, the binding signal (log2 normalized intensity) came out at 2.03. Take ATTAAACACAGTTGCCTATGCCCTTTGAAA: the binding signal (log2 normalized intensity) was determined as 2.36.

Take GAAAGAGGTCAATGTACTTACAGCTGGAAG: the binding signal (log2 normalized intensity) was determined as 0.646. With ACATTCCTTGTGTTTTGGGGACAGAAGGCA the figure was 1.05; with TAACGGTGAGGGAGGAGACTTTGACCTCTG, 6.61; with CTGGATGACCTTTGTCCTGGCACAACTGGA, 5.84.

With ATTAGCTGAACATGGTGACACACACCTCCA, the binding signal (log2 normalized intensity) was -1.19.

As for TAAGGTTGTACTTTGGAGTTTACTTTAGAT, the binding signal (log2 normalized intensity) was found to be 2.91.

With TAGCATGCTCTCTTGTCAAGACCGATTGTG, the binding signal (log2 normalized intensity) was found to be 0.269.

In the case of CAAATAACATTCCTAACATTCTTCCTCACA, the binding signal (log2 normalized intensity) was -1.11.

As to TTCCCTATCTAGCCACTTTCTTTGTCTGTG, the binding signal (log2 normalized intensity) was found to be 1.55. Turning to TGTGTGTGTGTGTGTATGCCATGCTAATTG, the binding signal (log2 normalized intensity) stood at 2. Turning to TGCACTGTTTGCATAAAGTTAAACTTTAAA, the binding signal (log2 normalized intensity) turned out to be 1.17. Regarding GCCCGAAAGACGCGGAGCGGGGGACCGAGA, the binding signal (log2 normalized intensity) was -1.04. For the sequence ATACAGACACACCTAGGGAGTTAATCACAG, the binding signal (log2 normalized intensity) was -0.998. With AGGTGACAGCCTTTTCTTATCAGGCTCATT the figure was 0.0547. For TGGATAAAGTCCATATTCTTTGTTTGGATG the value was 2.04; for GCCAAAGGTAATAGGAAAAGGGAGTTTTCT, -1.07. Take AGCCTCTCTGCAAACATTTATTTTGTGTGC: the binding signal (log2 normalized intensity) was 1.34. For CATACAATGAATATTCAGACGCATGACCTC, the binding signal (log2 normalized intensity) was determined as 3.17. Consider CAGTTTTCCTAAGGGGCTTTTATTGGCTCC, for which the binding signal (log2 normalized intensity) was -0.56. With TCAACATTGATGGGGCAGGGAAATATGTTC, the binding signal (log2 normalized intensity) stood at 1.43. Turning to AAAATTAAGGTTCAAAGGGAAAAAATAATC, the binding signal (log2 normalized intensity) was -0.757. On to AGGAACTTGTCTAAAAACATTGTGGAGCTC, for which the binding signal (log2 normalized intensity) is -0.826. With AAAAGCAAACCGAGATCAAGGGACAGAGAT, the binding signal (log2 normalized intensity) is -1.09. With GTACTTTCTTTTGGCTCTCTCTCTTGGTTC, the binding signal (log2 normalized intensity) came out at 1.58. In the case of ACCTGTATTAGGAAATTGTCAGTGCCCTAT, the binding signal (log2 normalized intensity) was found to be 2.25.
